T1: activin A (UniProt P08476 311-426)
T1 sequence (looked up): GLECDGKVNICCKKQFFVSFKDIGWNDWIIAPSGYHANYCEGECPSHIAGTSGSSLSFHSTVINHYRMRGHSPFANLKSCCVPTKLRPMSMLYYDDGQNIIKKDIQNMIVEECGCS

T2: activin B (UniProt P09529 293-407)
T2 sequence (looked up): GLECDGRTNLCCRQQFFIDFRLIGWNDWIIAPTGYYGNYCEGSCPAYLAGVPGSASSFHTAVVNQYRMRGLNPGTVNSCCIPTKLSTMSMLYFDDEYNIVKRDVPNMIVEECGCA

T3: GDF11 (UniProt O95390 299-407)
T3 sequence (looked up): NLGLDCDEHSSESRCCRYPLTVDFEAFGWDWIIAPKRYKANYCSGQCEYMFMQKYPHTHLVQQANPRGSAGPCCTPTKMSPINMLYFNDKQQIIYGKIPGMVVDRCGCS

T4: BMP10 (UniProt O95393 317-424)
T4 sequence (looked up): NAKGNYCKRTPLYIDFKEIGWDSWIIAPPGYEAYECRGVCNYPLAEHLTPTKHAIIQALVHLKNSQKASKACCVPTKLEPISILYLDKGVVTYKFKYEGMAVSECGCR

T5: GDF8 (UniProt O14793 267-375)
T5 sequence (looked up): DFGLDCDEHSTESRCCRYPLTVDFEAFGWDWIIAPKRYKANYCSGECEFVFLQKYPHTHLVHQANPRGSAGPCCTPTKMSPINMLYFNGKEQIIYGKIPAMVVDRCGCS


Columns and labels:
Assay in all cases: cell-based or functional assay
activin A = target: T1, activin A
activin B = target: T2, activin B
GDF11 = target: T3, GDF11
BMP10 = target: T4, BMP10
GDF8 = target: T5, GDF8

| IC50, A204 pGL3(CAGA)12 luciferase reporter (activin A) [nM] | IC50, A204 pGL3(CAGA)12 luciferase reporter (activin B) [nM] | IC50, A204 pGL3(CAGA)12 luciferase reporter (GDF11) [nM] | IC50, A204 pGL3(CAGA)12 luciferase reporter (BMP10) [nM] | IC50, A204 pGL3(CAGA)12 luciferase reporter (GDF8) [nM] | Binder |
| --- | --- | --- | --- | --- | --- |
| 1.67 | 0.08 | 9.95 | 13.2 |  | ActRIIB(F82I-N83R)-G1Fc (Fc fusion) GRGEAETRECIYYNANWELERTNQSGLERCEGEQDKRLHCYASWRNSSGTIELVKKGCWLDDIRCYDRQECVATEENPQVYFCCCEGNFCNERFTHLPEAGGPEVTYEPPPTAPTG[human IgG1 Fc and a few adjoining residues not shown] |
| 1.52 | 0.11 | 17.9 | 12.6 |  | ActRIIB(F82T-N83R)-G1Fc (Fc fusion) GRGEAETRECIYYNANWELERTNQSGLERCEGEQDKRLHCYASWRNSSGTIELVKKGCWLDDTRCYDRQECVATEENPQVYFCCCEGNFCNERFTHLPEAGGPEVTYEPPPTAPTG[human IgG1 Fc and a few adjoining residues not shown] |
| > 100 | 0.15 | 0.36 | > 100 |  | ActRIIB(L79H-F82I)-G1Fc (Fc fusion) GRGEAETRECIYYNANWELERTNQSGLERCEGEQDKRLHCYASWRNSSGTIELVKKGCWHDDINCYDRQECVATEENPQVYFCCCEGNFCNERFTHLPEAGGPEVTYEPPPTAPTG[human IgG1 Fc and a few adjoining residues not shown] |
|  | 0.1 | > 100 | > 100 |  | ActRIIB(L79H-F82K)-G1Fc (Fc fusion) GRGEAETRECIYYNANWELERTNQSGLERCEGEQDKRLHCYASWRNSSGTIELVKKGCWHDDKNCYDRQECVATEENPQVYFCCCEGNFCNERFTHLPEAGGPEVTYEPPPTAPTG[human IgG1 Fc and a few adjoining residues not shown] |
| 0.1 | 0.09 | 0.27 | 0.07 | 2.17 | ActRIIB(F82T)-G1Fc (Fc fusion) GRGEAETRECIYYNANWELERTNQSGLERCEGEQDKRLHCYASWRNSSGTIELVKKGCWLDDTNCYDRQECVATEENPQVYFCCCEGNFCNERFTHLPEAGGPEVTYEPPPTAPTG[human IgG1 Fc and a few adjoining residues not shown] |
| > 10 | 0.07 | 0.24 | > 100 | 5.76 | ActRIIB(L79H)-G1Fc (Fc fusion) GRGEAETRECIYYNANWELERTNQSGLERCEGEQDKRLHCYASWRNSSGTIELVKKGCWHDDFNCYDRQECVATEENPQVYFCCCEGNFCNERFTHLPEAGGPEVTYEPPPTAPTG[human IgG1 Fc and a few adjoining residues not shown] |

From US20240252628A1 (ACCELERON PHARMA, published 2024)
